In patent publication US20230250147A1, “GLP-1R AGONISTIC PEPTIDES WITH REDUCED ACTIVITY” (SANOFI, priority 2020, published 2023):

B1: 172 (protein)
chain: HGEGTFTSDKSKQLAKRLVRLFIEWLIKGGHSSGKPPPSGGGGGGGSGGGGSGGGGSA[… human IgG4 Fc with changes …]GGGSGSAHPIPDSSPLLQFGGQVRQRYLYTDDACQTEAHLEIREDGTVGGAADQSPESLLQLKALKPGVIQILGVKTSRFLCQRPDGALYGSLHFDPEACSFRELLLEDGYNVYQSEAHGLPLHLPGCKSPHRDPAPRGPARFLPLPGLPPAPPEPPGILAPQPPDVGSSDPLSMVGSQGRSPSYAS
modifications: Fusion Protein
B2: 112 (protein)
chain: HGEGTFTSDKSQLLEKRLAHLFIEWLLAGGPSSGRPPPKGGGGGGGSGGGGSGGGGSA[… human IgG4 Fc with changes …]GGGSGSAHPIPDSSPLLQFGGQVRQRYLYTDDACQTEAHLEIREDGTVGGAADQSPESLLQLKALKPGVIQILGVKTSRFLCQRPDGALYGSLHFDPEACSFRELLLEDGYNVYQSEAHGLPLHLPGCKSPHRDPAPRGPARFLPLPGLPPAPPEPPGILAPQPPDVGSSDPLSMVGSQGRSPSYAS
modifications: Fusion protein
B3: 115 (protein)
chain: YGEGTFTSDKSQLLEKRLAHLFIEWLIKGGHSSIKPPPKGGGGGGGSGGGGSGGGGSA[… human IgG4 Fc with changes …]GGGSGSAHPIPDSSPLLQFGGQVRQRYLYTDDACQTEAHLEIREDGTVGGAADQSPESLLQLKALKPGVIQILGVKTSRFLCQRPDGALYGSLHFDPEACSFRELLLEDGYNVYQSEAHGLPLHLPGCKSPHRDPAPRGPARFLPLPGLPPAPPEPPGILAPQPPDVGSSDPLSMVGSQGRSPSYAS
modifications: Fusion Protein
B4: 105 (protein)
chain: HGEGTFTSDKSQLLEERLAHLFIEWLIKGGHSSIKPPPKGGGGGGGSGGGGSGGGGSA[… human IgG4 Fc with changes …]GGGSGSAHPIPDSSPLLQFGGQVRQRYLYTDDACQTEAHLEIREDGTVGGAADQSPESLLQLKALKPGVIQILGVKTSRFLCQRPDGALYGSLHFDPEACSFRELLLEDGYNVYQSEAHGLPLHLPGCKSPHRDPAPRGPARFLPLPGLPPAPPEPPGILAPQPPDVGSSDPLSMVGSQGRSPSYAS
modifications: Fusion Protein
B5: 170 (protein)
chain: HGEGTFTSDKSKQLAKRLVREFIEWLIEGGHSSGKPPPKGGGGGGGSGGGGSGGGGSA[… human IgG4 Fc with changes …]GGGSGSAHPIPDSSPLLQFGGQVRQRYLYTDDACQTEAHLEIREDGTVGGAADQSPESLLQLKALKPGVIQILGVKTSRFLCQRPDGALYGSLHFDPEACSFRELLLEDGYNVYQSEAHGLPLHLPGCKSPHRDPAPRGPARFLPLPGLPPAPPEPPGILAPQPPDVGSSDPLSMVGSQGRSPSYAS
modifications: Fusion Protein
B6: 107 (protein)
chain: YGEGTFTSDKSQLLEERLAHLFIEWLIAGGHSKIRPPPKGGGGGGGSGGGGSGGGGSA[… human IgG4 Fc with changes …]GGGSGSAHPIPDSSPLLQFGGQVRQRYLYTDDACQTEAHLEIREDGTVGGAADQSPESLLQLKALKPGVIQILGVKTSRFLCQRPDGALYGSLHFDPEACSFRELLLEDGYNVYQSEAHGLPLHLPGCKSPHRDPAPRGPARFLPLPGLPPAPPEPPGILAPQPPDVGSSDPLSMVGSQGRSPSYAS
modifications: Fusion Protein
B7: 109 (protein)
chain: YGEGTFTSDKSQLLEKELAHLFIEWLIAGGHKSGRPSPKGGGGGGGSGGGGSGGGGSA[… human IgG4 Fc with changes …]GGGSGSAHPIPDSSPLLQFGGQVRQRYLYTDDACQTEAHLEIREDGTVGGAADQSPESLLQLKALKPGVIQILGVKTSRFLCQRPDGALYGSLHFDPEACSFRELLLEDGYNVYQSEAHGLPLHLPGCKSPHRDPAPRGPARFLPLPGLPPAPPEPPGILAPQPPDVGSSDPLSMVGSQGRSPSYAS
modifications: Fusion Protein
B8: 92 (protein)
chain: HGEGTFTSDLSIQLEEEAVRLFIEWLLATGPVSGAPPPSGGGGGGGSGGGGSGGGGSA[… human IgG4 Fc with changes …]GGGSGSAHPIPDSSPLLQFGGQVRQRYLYTDDACQTEAHLEIREDGTVGGAADQSPESLLQLKALKPGVIQILGVKTSRFLCQRPDGALYGSLHFDPEACSFRELLLEDGYNVYQSEAHGLPLHLPGCKSPHRDPAPRGPARFLPLPGLPPAPPEPPGILAPQPPDVGSSDPLSMVGSQGRSPSYAS
modifications: Fusion Protein
B9: 97 (protein)
chain: HGEGTFTSDLSILLEEEAVRLFIEWLLATGPVSGAPPPSGGGGGGGSGGGGSGGGGSA[… human IgG4 Fc with changes …]GGGSGSAHPIPDSSPLLQFGGQVRQRYLYTDDACQTEAHLEIREDGTVGGAADQSPESLLQLKALKPGVIQILGVKTSRFLCQRPDGALYGSLHFDPEACSFRELLLEDGYNVYQSEAHGLPLHLPGCKSPHRDPAPRGPARFLPLPGLPPAPPEPPGILAPQPPDVGSSDPLSMVGSQGRSPSYAS
modifications: Fusion Protein
B10: 94 (protein)
chain: HGEGTFTSDLSIQLEEEAVQLFIEWLLATGPVSGAPPPSGGGGGGGSGGGGSGGGGSA[… human IgG4 Fc with changes …]GGGSGSAHPIPDSSPLLQFGGQVRQRYLYTDDACQTEAHLEIREDGTVGGAADQSPESLLQLKALKPGVIQILGVKTSRFLCQRPDGALYGSLHFDPEACSFRELLLEDGYNVYQSEAHGLPLHLPGCKSPHRDPAPRGPARFLPLPGLPPAPPEPPGILAPQPPDVGSSDPLSMVGSQGRSPSYAS
modifications: Fusion Protein
B11: 101 (protein)
chain: HAQGTFTSDLSKQLESRRAQEFIEWLLATGPESGAPPPSGGGGGGGSGGGGSGGGGSA[… human IgG4 Fc with changes …]GGGSGSAHPIPDSSPLLQFGGQVRQRYLYTDDACQTEAHLEIREDGTVGGAADQSPESLLQLKALKPGVIQILGVKTSRFLCQRPDGALYGSLHFDPEACSFRELLLEDGYNVYQSEAHGLPLHLPGCKSPHRDPAPRGPARFLPLPGLPPAPPEPPGILAPQPPDVGSSDPLSMVGSQGRSPSYAS
modifications: Fusion Protein
B12: 93 (protein)
chain: HGEGTFTSDLSIQLEEEAVQEFIEWLLATGPVSGAPPPSGGGGGGGSGGGGSGGGGSA[… human IgG4 Fc with changes …]GGGSGSAHPIPDSSPLLQFGGQVRQRYLYTDDACQTEAHLEIREDGTVGGAADQSPESLLQLKALKPGVIQILGVKTSRFLCQRPDGALYGSLHFDPEACSFRELLLEDGYNVYQSEAHGLPLHLPGCKSPHRDPAPRGPARFLPLPGLPPAPPEPPGILAPQPPDVGSSDPLSMVGSQGRSPSYAS
modifications: Fusion Protein
B13: 100 (protein)
chain: HGEGTFTSDLSKQLEEEAVRLFIEWLLATGPSSGEPPPEGGGGGGGSGGGGSGGGGSA[… human IgG4 Fc with changes …]GGGSGSAHPIPDSSPLLQFGGQVRQRYLYTDDACQTEAHLEIREDGTVGGAADQSPESLLQLKALKPGVIQILGVKTSRFLCQRPDGALYGSLHFDPEACSFRELLLEDGYNVYQSEAHGLPLHLPGCKSPHRDPAPRGPARFLPLPGLPPAPPEPPGILAPQPPDVGSSDPLSMVGSQGRSPSYAS
modifications: Fusion Protein
B14: 102 (protein)
chain: HSQGTFTSDLSKQLESRRARRFIEWLLATGPESGAPPPSGGGGGGGSGGGGSGGGGSA[… human IgG4 Fc with changes …]GGGSGSAHPIPDSSPLLQFGGQVRQRYLYTDDACQTEAHLEIREDGTVGGAADQSPESLLQLKALKPGVIQILGVKTSRFLCQRPDGALYGSLHFDPEACSFRELLLEDGYNVYQSEAHGLPLHLPGCKSPHRDPAPRGPARFLPLPGLPPAPPEPPGILAPQPPDVGSSDPLSMVGSQGRSPSYAS
modifications: Fusion Protein
B15: 175 (protein)
chain: HGEGTFTSDKSKQLAKEAVQLFIEWLLAGGPKKIRYSGGGGGGGSGGGGSGGGGSA[… human IgG4 Fc with changes …]GGGSGSAHPIPDSSPLLQFGGQVRQRYLYTDDACQTEAHLEIREDGTVGGAADQSPESLLQLKALKPGVIQILGVKTSRFLCQRPDGALYGSLHFDPEACSFRELLLEDGYNVYQSEAHGLPLHLPGCKSPHRDPAPRGPARFLPLPGLPPAPPEPPGILAPQPPDVGSSDPLSMVGSQGRSPSYAS
modifications: Fusion Protein
B16: 176 (protein)
chain: HGEGTFTSDKSKQLAERAVQLFIEWLLAGGPKKIRYSGGGGGGGSGGGGSGGGGSA[… human IgG4 Fc with changes …]GGGSGSAHPIPDSSPLLQFGGQVRQRYLYTDDACQTEAHLEIREDGTVGGAADQSPESLLQLKALKPGVIQILGVKTSRFLCQRPDGALYGSLHFDPEACSFRELLLEDGYNVYQSEAHGLPLHLPGCKSPHRDPAPRGPARFLPLPGLPPAPPEPPGILAPQPPDVGSSDPLSMVGSQGRSPSYAS
modifications: Fusion Protein
B17: 177 (protein)
chain: HGEGTFTSDKSKQLAKRAVQLFIEWLLAGGPKKIRYSGGGGGGGSGGGGSGGGGSA[… human IgG4 Fc with changes …]GGGSGSAHPIPDSSPLLQFGGQVRQRYLYTDDACQTEAHLEIREDGTVGGAADQSPESLLQLKALKPGVIQILGVKTSRFLCQRPDGALYGSLHFDPEACSFRELLLEDGYNVYQSEAHGLPLHLPGCKSPHRDPAPRGPARFLPLPGLPPAPPEPPGILAPQPPDVGSSDPLSMVGSQGRSPSYAS
modifications: Fusion Protein
B18: 180 (protein)
chain: HGEGTFTSDKSKQLAERLVQLFIEWLLAGGPKKIRYSGGGGGGGSGGGGSGGGGSA[… human IgG4 Fc with changes …]GGGSGSAHPIPDSSPLLQFGGQVRQRYLYTDDACQTEAHLEIREDGTVGGAADQSPESLLQLKALKPGVIQILGVKTSRFLCQRPDGALYGSLHFDPEACSFRELLLEDGYNVYQSEAHGLPLHLPGCKSPHRDPAPRGPARFLPLPGLPPAPPEPPGILAPQPPDVGSSDPLSMVGSQGRSPSYAS
modifications: Fusion Protein

What follows are molecules tested against T1, Human GLP-1R (Homo sapiens, UniProt P43220) (assay: HTRF cAMP assay in HEK-293 cells, human GLP-1R).
T1 construct: expressed in transfected cells; host or cells: HEK-293
T1 sequence (P43220 24-463): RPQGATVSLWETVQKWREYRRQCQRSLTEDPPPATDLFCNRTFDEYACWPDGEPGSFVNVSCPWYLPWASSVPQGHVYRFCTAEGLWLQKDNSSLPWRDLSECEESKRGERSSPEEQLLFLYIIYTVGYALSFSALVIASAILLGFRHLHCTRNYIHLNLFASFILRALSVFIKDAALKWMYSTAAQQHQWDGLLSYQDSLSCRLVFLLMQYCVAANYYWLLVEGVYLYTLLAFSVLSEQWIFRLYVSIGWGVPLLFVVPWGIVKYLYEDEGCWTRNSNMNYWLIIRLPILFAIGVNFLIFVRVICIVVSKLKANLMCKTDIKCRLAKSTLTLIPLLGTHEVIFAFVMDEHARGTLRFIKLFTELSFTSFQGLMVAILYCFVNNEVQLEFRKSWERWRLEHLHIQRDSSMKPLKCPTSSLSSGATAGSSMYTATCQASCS
Format: cell-based
Protocol: Recombinant HEK-293 cells were grown in T175 culture flasks placed at 37° C. to near confluence in medium (DMEM with 10% FBS) and collected in 2 mL vials in cell culture medium containing 10% DMSO in concentrations of 1-5×10^7 cells/mL. Each vial contained 1.8 mL cell suspension. The vials were slowly frozen to −80° C. in an isopropanol chamber, and then transferred to liquid nitrogen for long term storage.
Prior to their use, frozen cells were thawed quickly at 37° C., washed with 20 mL cell buffer (1×HBSS; 20 mM HEPES, 0.1% BSA) and centrifuged for 5 minutes at 900 rpm. Cells were resuspended in assay buffer (cell buffer plus 2 mM IBMX) and adjusted to a cell density of 1×10^6 cells/mL. For measurement, 5 μL cell suspension (final 5×10^3 cells/well) and 5 μL of test compound were added to a well of a 384-well plate, followed by incubation for 30 minutes at room temperature. […] The cAMP content of cells was determined using a kit from Cisbio Corp. (cat. no. 62AM4PEC) based on Homogenous Time Resolved Fluorescence (HTRF).

Row | EC50 [nM] | Molecule
1 | 0.254 | B1
2 | 0.00723 | B2
3 | 0.0922 | B3
4 | 0.00812 | B4
5 | 0.234 | B5
6 | 0.186 | B6
7 | 0.278 | B7
8 | 0.0589 | B8
9 | 0.0404 | B9
10 | 0.0665 | B10
11 | 0.0835 | B11
12 | 0.0484 | B12
13 | 0.015 | B13
14 | 0.17 | B14
15 | 0.0909 | B15
16 | 0.0718 | B16
17 | 0.0486 | B17
18 | 0.406 | B18
